Hit rate of the full screen: of about 310,000 compounds, about 14,000 (4.5%) showed an effect of 50% or more. Effects have a minus sign here. This is one part of the list.
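Further: peak tail current of the secondary pulse compared with the same well before compound.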

The test deals with human ether-à-go-go-related gene (hERG) potassium channel (human, UniProt Q12809). As to the kind of experiment: primary screen, population patch clamp on CHO cells stably expressing hERG.
Chain of human ether-à-go-go-related gene (hERG) potassium channel (Q12809 whole entry, looked up): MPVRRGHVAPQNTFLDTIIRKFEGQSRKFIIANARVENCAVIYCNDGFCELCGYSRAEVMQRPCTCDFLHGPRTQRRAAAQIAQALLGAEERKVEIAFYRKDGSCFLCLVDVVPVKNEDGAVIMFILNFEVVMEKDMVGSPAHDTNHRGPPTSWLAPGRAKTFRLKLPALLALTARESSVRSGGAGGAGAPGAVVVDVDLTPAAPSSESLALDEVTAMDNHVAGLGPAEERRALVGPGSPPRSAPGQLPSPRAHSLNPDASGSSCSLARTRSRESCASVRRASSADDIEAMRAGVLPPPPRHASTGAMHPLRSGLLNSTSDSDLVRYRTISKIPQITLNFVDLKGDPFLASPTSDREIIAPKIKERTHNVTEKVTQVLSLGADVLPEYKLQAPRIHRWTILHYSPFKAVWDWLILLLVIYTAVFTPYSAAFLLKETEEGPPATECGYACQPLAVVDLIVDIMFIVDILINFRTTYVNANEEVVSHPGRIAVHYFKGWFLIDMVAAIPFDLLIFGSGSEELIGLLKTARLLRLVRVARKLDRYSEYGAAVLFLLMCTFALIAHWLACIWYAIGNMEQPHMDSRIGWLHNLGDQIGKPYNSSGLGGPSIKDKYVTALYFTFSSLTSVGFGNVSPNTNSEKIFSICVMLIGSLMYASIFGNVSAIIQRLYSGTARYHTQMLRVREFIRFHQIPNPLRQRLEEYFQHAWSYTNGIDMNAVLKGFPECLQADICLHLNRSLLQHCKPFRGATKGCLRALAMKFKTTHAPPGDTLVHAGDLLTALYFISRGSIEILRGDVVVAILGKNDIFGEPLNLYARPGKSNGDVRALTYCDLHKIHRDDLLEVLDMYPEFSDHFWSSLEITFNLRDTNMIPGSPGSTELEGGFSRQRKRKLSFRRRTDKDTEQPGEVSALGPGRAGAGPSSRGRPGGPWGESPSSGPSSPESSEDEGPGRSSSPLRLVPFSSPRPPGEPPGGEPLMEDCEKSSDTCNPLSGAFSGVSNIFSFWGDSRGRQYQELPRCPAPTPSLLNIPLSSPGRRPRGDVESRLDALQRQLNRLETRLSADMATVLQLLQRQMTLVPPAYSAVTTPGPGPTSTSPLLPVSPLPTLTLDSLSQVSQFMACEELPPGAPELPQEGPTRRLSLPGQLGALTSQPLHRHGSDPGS
As to `Cc1cccc(NC(=O)C2CCN(C(=O)NCc3ccccc3)CC2)c1C`, the “hERG current change (%, negative = inhibition) at 10uM” value stood at 1.9%.

For the molecule `Cc1cc(NC(=O)c2cc(C3CC3)on2)n(-c2ccccc2)n1`, the “hERG current change (%, negative = inhibition) at 10uM” value was -1.78%.

As for `CCOC(=O)C1=NNC(C(=O)c2ccc(C)cc2)C1c1ccc(C)cc1` (stereo not shown), the “hERG current change (%, negative = inhibition) at 10uM” value is listed as -2.99%.

For the molecule `CCOc1cc(/C=C(/NC(C)=O)C(=O)O)cc(Cl)c1OCc1ccc(Br)cc1`, the “hERG current change (%, negative = inhibition) at 10uM” value is recorded as -15.8%.

Regarding `O=C(Nc1sc2c(c1C(=O)c1ccccc1)CCCC2)c1cccnc1`, the “hERG current change (%, negative = inhibition) at 10uM” value came to 6.84%.

For the molecule `COc1ccc(CCNC(=S)NC(=O)c2ccccc2)cc1OC`, the “hERG current change (%, negative = inhibition) at 10uM” value came out at 2.78%.

In the case of `Cc1ccc(-n2nc3c(=O)n(CC(=O)NCCCc4ccccc4)nc(C)c3c2C)cc1`, the “hERG current change (%, negative = inhibition) at 10uM” value is 4%.

Regarding `CN1CCN(c2ccc([N+](=O)[O-])cc2NC(=O)c2ccco2)CC1`, the “hERG current change (%, negative = inhibition) at 10uM” value is given as -66.9%.

With `COc1ccc(C(=O)CSc2nnc(NC(=O)C3CC(=O)N(c4ccccc4)C3)s2)cc1` (stereo not shown), the “hERG current change (%, negative = inhibition) at 10uM” value is listed as -7.02%.

Take `COc1ccc(Cc2noc(-c3ccccc3)n2)cc1OC`: the “hERG current change (%, negative = inhibition) at 10uM” value is listed as -18.7%.

`CCCOc1cccc(C2C(C(=O)c3cc4ccccc4o3)=C(O)C(=O)N2c2cc(C)on2)c1` (stereo not shown): the “hERG current change (%, negative = inhibition) at 10uM” value is on record as -7.72%.

Regarding `COc1ccc2[nH]cc(CCNC(=O)CCC3CCCCC3)c2c1`, the “hERG current change (%, negative = inhibition) at 10uM” value is -8.32%.

With `COc1ccc2cc3cc(C(=O)NCc4cccs4)oc3nc2c1`, the “hERG current change (%, negative = inhibition) at 10uM” value is given as -3%.

Consider `Cc1ccc(-c2noc(-c3cc4ccccc4oc3=O)n2)cc1`, for which the “hERG current change (%, negative = inhibition) at 10uM” value is -8.15%.

Take `O=C(N/N=C/c1cccnc1)c1cccc(N2CCCC2=O)c1`: the “hERG current change (%, negative = inhibition) at 10uM” value came to 16.5%.

In the case of `COc1ccc(/C=N/n2cnn(Cc3ccccc3Cl)c2=S)cc1OC`, the “hERG current change (%, negative = inhibition) at 10uM” value was 6.83%.

On to `COc1ccc(N2C(=O)CC(NNC(=O)c3cccnc3)C2=O)cc1` (stereo not shown), for which the “hERG current change (%, negative = inhibition) at 10uM” value is reported as 17.9%.

Consider `CCn1c2ccccc2c2cc(NC(=O)COC(=O)c3ccccc3F)ccc21`, for which the “hERG current change (%, negative = inhibition) at 10uM” value stood at 1.98%.

Consider `CCC(C)[C@H](NC(=O)NCc1ccc(S(N)(=O)=O)cc1)C(=O)O` (stereo partly shown), for which the “hERG current change (%, negative = inhibition) at 10uM” value came out at 10.5%.

`CN(CCC#N)C(=S)Nc1ccc(F)cc1`: the “hERG current change (%, negative = inhibition) at 10uM” value worked out at 6.87%.

As for `Cc1cc(C)c(C#N)c(Nc2ccc(F)cc2)n1`, the “hERG current change (%, negative = inhibition) at 10uM” value is 3.38%.

Consider `CCCCCC(=O)Nc1cc2[nH]c(=O)cc(COC)c2cc1C`, for which the “hERG current change (%, negative = inhibition) at 10uM” value is on record as -20.6%.

Regarding `COc1ccc(/C=C/c2nnc(NC(=O)CC(C)C)s2)cc1`, the “hERG current change (%, negative = inhibition) at 10uM” value worked out at 15%.

For the molecule `Nc1nonc1C(=O)N/N=C/c1ccc(-c2cccc([N+](=O)[O-])c2)o1`, the “hERG current change (%, negative = inhibition) at 10uM” value was -25%.

Consider `O=Cc1ccc(OC(=O)/C=C/c2ccccc2)cc1`, for which the “hERG current change (%, negative = inhibition) at 10uM” value is given as 19.3%.

Turning to `CCc1cccc(C)c1NC(=O)CSc1nnc(CCCOc2ccc(Cl)cc2Cl)n1C`, the “hERG current change (%, negative = inhibition) at 10uM” value is -34%.

For `CCOC(=O)c1nnc2c(Br)c(-c3ccccc3)nn2c1C`, the “hERG current change (%, negative = inhibition) at 10uM” value is on record as 11.2%.

With `O=C(COC(=O)c1ncc(Cl)c(Cl)c1Cl)NC(=O)NCc1ccccc1`, the “hERG current change (%, negative = inhibition) at 10uM” value was determined as 27.7%.

With `NC(=O)Nn1c(CCC(=O)O)ccc1-c1ccc(Br)cc1`, the “hERG current change (%, negative = inhibition) at 10uM” value stood at 9.77%.

Take `Cc1ccnc2nc(C(=O)OCCOc3ccccc3)nn12`: the “hERG current change (%, negative = inhibition) at 10uM” value was -11.5%.

In the case of `CC(=O)OCCCn1c(C)[n+](C)c2cc(Cl)c(Cl)cc21.[I-]`, the “hERG current change (%, negative = inhibition) at 10uM” value was -6%.

On to `COCCN1C=C2C(=O)C(C)(OC(=O)c3cccs3)C(=O)C=C2C=C1CCCC(=O)OC` (stereo not shown), for which the “hERG current change (%, negative = inhibition) at 10uM” value is listed as 3.08%.

As for `CCOCCCn1c(=S)[nH]c2cc(C(=O)NCCc3ccc(OC)c(OC)c3)ccc2c1=O`, the “hERG current change (%, negative = inhibition) at 10uM” value came to 5.22%.

Turning to `CCOC(=O)CC1=C(C#N)C(c2cccnc2)C(C(=O)OCC)=C(N)O1` (stereo not shown), the “hERG current change (%, negative = inhibition) at 10uM” value was determined as 5.32%.

Regarding `CCOCCCNC(=O)CN1C(=O)c2cccc3cccc1c23`, the “hERG current change (%, negative = inhibition) at 10uM” value turned out to be 18%.

With `CN(C(=O)COC(=O)c1ccccc1Cc1ccccc1)C1CCS(=O)(=O)C1` (stereo not shown), the “hERG current change (%, negative = inhibition) at 10uM” value is on record as -25.4%.

On to `FC(F)(F)c1cnc(N2CCCN(C(=S)Nc3ccccc3)CC2)c(Cl)c1`, for which the “hERG current change (%, negative = inhibition) at 10uM” value is -18.4%.

In the case of `CCOC(=O)CSc1n[nH]c(NS(=O)(=O)c2ccccc2C(F)(F)F)n1`, the “hERG current change (%, negative = inhibition) at 10uM” value was -1.78%.

On to `Cc1nc(NC(=O)CSc2cc(C)c3ccccc3n2)c(Cl)cc1Cl`, for which the “hERG current change (%, negative = inhibition) at 10uM” value turned out to be 5.23%.

For `CCOc1ccc(N=C/C=C/c2ccccc2)c(O)c1`, the “hERG current change (%, negative = inhibition) at 10uM” value turned out to be 12%.

As to `CN1CCN(CC(=O)N2c3ccccc3C(=O)Nc3cccnc32)CC1.Cl`, the “hERG current change (%, negative = inhibition) at 10uM” value is on record as 10.9%.

For `COc1ccc(S(=O)(=O)CCc2nnc(NC(=O)c3ccc(F)cc3)s2)cc1`, the “hERG current change (%, negative = inhibition) at 10uM” value is given as 2.65%.

Turning to `Cc1ccc(C)c(OCCC(=O)OCC(=O)Nc2ccc(C)c(S(=O)(=O)N3CCCCC3)c2)c1`, the “hERG current change (%, negative = inhibition) at 10uM” value is -11.7%.

In the case of `CCc1ccccc1NC(=O)CCS(=O)(=O)c1ccc2c(c1)CCCN2C(C)=O`, the “hERG current change (%, negative = inhibition) at 10uM” value was 14%.

Turning to `COc1ccccc1CNC(=O)COc1ccc(C)nc1[N+](=O)[O-]`, the “hERG current change (%, negative = inhibition) at 10uM” value is reported as 18.3%.

For `CCCn1c(SCC(=O)NC(C)(C)C)nnc1-c1ccco1`, the “hERG current change (%, negative = inhibition) at 10uM” value is recorded as 24.9%.

Take `O=C(Oc1c(Cl)cc(Cl)c2cccnc12)c1cccs1`: the “hERG current change (%, negative = inhibition) at 10uM” value stood at 1.95%.

Regarding `Cc1cc(Cl)c(S(=O)(=O)Nc2ccc(S(=O)(=O)N3CCOCC3)cc2)cc1OCC(N)=O`, the “hERG current change (%, negative = inhibition) at 10uM” value was 11.6%.

As to `NCCc1ccccn1`, the “hERG current change (%, negative = inhibition) at 10uM” value came out at 2.96%.

Consider `CCOC(=O)Cn1nnnc1C`, for which the “hERG current change (%, negative = inhibition) at 10uM” value was found to be 16%.

For the molecule `CCCCCCn1c(O)c(C(C)=NC)c(=O)[nH]c1=O`, the “hERG current change (%, negative = inhibition) at 10uM” value was found to be 1.56%.

For `Br.NCCCC(=O)OC1N=C(c2ccccc2Cl)c2cc(Br)ccc2NC1=O` (stereo not shown), the “hERG current change (%, negative = inhibition) at 10uM” value was -12.6%.

`Cc1c(C(=O)N(C)Cc2ccccc2)oc2c(Cl)cccc12`: the “hERG current change (%, negative = inhibition) at 10uM” value is reported as -35.5%.

For `CCOC(=O)CSc1ncc(-c2ccccc2)cn1`, the “hERG current change (%, negative = inhibition) at 10uM” value was -16.3%.

For `COc1ccc([N+](=O)[O-])cc1CSc1ccccn1`, the “hERG current change (%, negative = inhibition) at 10uM” value turned out to be 1.85%.

Regarding `Cc1nc2ccc(NC(=O)CS(=O)(=O)c3ccc(F)cc3)cc2s1`, the “hERG current change (%, negative = inhibition) at 10uM” value is given as -7.44%.

Regarding `CCc1ccc(NP(=O)(Oc2ccccc2F)Oc2ccccc2F)cc1`, the “hERG current change (%, negative = inhibition) at 10uM” value is recorded as 16.3%.

On to `CC(C)NC(=S)Nc1ccc(S(=O)(=O)Nc2ncccn2)cc1`, for which the “hERG current change (%, negative = inhibition) at 10uM” value amounted to 2.63%.
